# According to the supplement of paper PMC10126150:
# Values marked as one replicate rest on one cluster of the flow cell; about a third of the high ones do not repeat.
# Test system: ATP
# Assay: switch fluorescence ratio, 500 uM ATP over buffer (Cy3 cluster intensity, sum of 5 cycles each) (fold (ratio)); higher = stronger signal-on switching upon ATP binding; sequences stand for … in TCGTCGGCAGCGTCAGATGTGTATAAGAGACAGTTTTTTTTTTTTTTTTTTTTTTTTT…TC
# Details: aptamer strand: ATP DNA aptamer (quencher-CACCTGGGGGAGTATTGCGGAGGAAGG + anchor), 100 nM annealed; ATP concentration: 500 uM; one replicate
# Method in brief: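 Switching-strand clusters labelled with Cy3 on a modified Illumina MiSeq flow-cell were annealed to 100 nM quencher-labelled ATP aptamer, imaged in selection buffer, and re-imaged after 15 min with 500 uM ATP at 22 °C. This was done over five cycles with NaOH stripping and re-annealing in between. The fluorescence ratio is summed target-cycle over summed buffer-cycle Cy3 intensity per cluster, averaged per switch-domain sequence, excluding clusters outside 100-1000 RFU.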
# 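Further: ATP exposure 15 min at 22 °C before imaging.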
row,Sequence,switch fluorescence ratio
1,CGGGTAAATT,0.963
2,GCTGAAGCTA,1.01
3,AAAATTGTGG,0.991
4,ATCTACCACC,1.26
5,CGTCAGGTAG,1.04
6,TCGAGTCTGA,1.01
7,GATAAACAAG,1.02
8,TGGTTTTCCT,1.02
9,AAACCTTTTA,1.04
10,GTTTTAAGAT,0.985
11,AAGGGCCCC,1.07
12,TCAACTGCTG,1.04
13,TTCTTTGCGC,1
14,CGAAGTGGT,1.01
15,GTGGGAATGC,1.19
16,ACCTGTGTTC,1.01
17,CGCGACAGCA,0.991
18,TTGTCTAATC,0.999
19,TCACTCGTAA,1.27
20,GATTAGCCTA,0.963
21,GTACCTCGGT,1.01
22,CAATGGTGCT,1.02
23,TAATTATACT,1.11
24,ATAGCGTGA,1.05
25,GATGCGAGCT,0.955

row,Sequence,switch fluorescence ratio
1,TCAGTTCGCG,1.01
2,AACAATTGTA,0.963
3,GTCTAATAGG,0.999
4,CATCGGGCCG,0.97
5,ATAGCAAAGA,4.64
6,TCAGTGTAGT,1.04
7,GTGCCCCACG,0.973
8,ATCCCGTTTG,1.07
9,TGGGTCAGGG,1.03
10,CCGCTGTAGG,1.08
11,TAAGTTTATA,1.02
12,TAGGAACCCT,1.07
13,TTCTTAGCAT,1.02
14,TTCTCTGTCG,0.983
15,ATTAACCCTA,1.06
16,ACAGGTATGA,1.03
17,TACTGTGTGA,1.01
18,AGCTGCGAGC,0.971
19,CGGCGACGC,1.01
20,TGGTGGCAAG,0.956
21,TTATAAAT,1.01
22,TAGTGAGG,0.994
23,CGTAGAGGCT,1.06
24,GACCTAATCC,1.16
25,AGGAAGTAGT,1.02

row,Sequence,switch fluorescence ratio
1,TTACGTATGC,1.49
2,AGTATTCTCC,1.06
3,TCAGATCCAC,0.981
4,AATCTGTTTG,0.955
5,AGATCGCTGA,1.03
6,GAGAGAGAGG,1.03
7,ATTATCTCCA,1.01
8,GAGGTTCCAA,0.979
9,GTCAGTCCGG,1.03
10,GGGGTCTCGG,1.02
11,TTAGCGGAAT,1
12,AGTATCGATC,0.976
13,ATGTGGTC,0.99
14,GAACATATAT,1.12
15,CCCCAACGCC,1.47
16,CGTCCTTGAT,1.02
17,TTGACGGATT,1.05
18,GGGGGCAGTA,1.02
19,GCCTATGCGC,0.987
20,CATAACGCAG,1.03
21,CGTTTCCGTA,1.02
22,GACGTTGCGC,0.904
23,GCATAAGATT,1.01
24,TGGACAGTC,1.06
25,CATAGACGTG,1.01

row,Sequence,switch fluorescence ratio
1,ATATCGGGAT,0.956
2,GTGTTTATTA,0.962
3,TCCACGGCTG,0.97
4,TCGAACACAG,1.03
5,GCGCCAATCT,1.2
6,CAGAACTACA,1.05
7,GTAGGCCTTG,1.02
8,TCTCGGTAAT,2.21
9,CTCTTCAATC,3.44
10,GGGAGTTACT,1.02
11,TAGCGCGGA,1.13
12,GCTTTACAAT,0.994
13,CCCGGACGTG,1.01
14,AGAGAATTAT,0.98
15,AGGGCACA,1.12
16,AGGCTAGCCG,1.02
17,GGGTGCAGG,1
18,GCGGCAGTTG,1.01
19,CAGGTGAGTC,1.22
20,TCGAGCTGTT,1.06
21,ACTTCTTTTA,1.02
22,TAATGTTAGC,0.913
23,TATATTCGAA,1
24,TGAGTACAGG,1.02
25,GCGATGAAAA,1.09
